# Measured values from paper PMC9911399, “Two distinct binding modes provide the RNA-binding protein RbFox with extraordinary sequence specificity”.
# Where a chain is given by its changes, count along the chain named. The list shows a part of the results.
# T1: RBFOX1 RRM (Homo sapiens, UniProt Q9NWB1 109-208)
# T1 sequence: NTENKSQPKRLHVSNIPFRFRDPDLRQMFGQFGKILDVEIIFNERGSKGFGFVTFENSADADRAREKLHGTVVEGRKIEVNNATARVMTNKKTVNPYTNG
# B1: UGGCUGA (DNA:RNA)
# RNA: GGGAGACCGGAAUUCAGAUUGUCCUGGCUGAUUAAAUCCCGUCGUAGCCACCA
# DNA 1: CAATCTGAATTCCGGTCTCCC
# DNA 2: TGGTGGCTACGACGGGATT
# B2: AGUUGAG (DNA:RNA)
# RNA: B1 RNA with U25A, G27U, C28U, U29G, G30A, A31G
# DNA 1: CAATCTGAATTCCGGTCTCCC
# DNA 2: TGGTGGCTACGACGGGATT
# B3: AUCUAUA (DNA:RNA)
# RNA: B1 RNA with U25A, G26U, G27C, C28U, U29A, G30U
# DNA 1: CAATCTGAATTCCGGTCTCCC
# DNA 2: TGGTGGCTACGACGGGATT
# B4: GGCUAGU (DNA:RNA)
# RNA: B1 RNA with U25G, G27C, C28U, U29A, A31U
# DNA 1: CAATCTGAATTCCGGTCTCCC
# DNA 2: TGGTGGCTACGACGGGATT
# B5: GAUCAGG (DNA:RNA)
# RNA: B1 RNA with U25G, G26A, G27U, U29A, A31G
# DNA 1: CAATCTGAATTCCGGTCTCCC
# DNA 2: TGGTGGCTACGACGGGATT
# B6: CGCUGAA (DNA:RNA)
# RNA: B1 RNA with U25C, G27C, C28U, U29G, G30A
# DNA 1: CAATCTGAATTCCGGTCTCCC
# DNA 2: TGGTGGCTACGACGGGATT
# B7: UUCAGCC (DNA:RNA)
# RNA: B1 RNA with G26U, G27C, C28A, U29G, G30C, A31C
# DNA 1: CAATCTGAATTCCGGTCTCCC
# DNA 2: TGGTGGCTACGACGGGATT
# B8: CUUUCGG (DNA:RNA)
# RNA: B1 RNA with U25C, G26U, G27U, C28U, U29C, A31G
# DNA 1: CAATCTGAATTCCGGTCTCCC
# DNA 2: TGGTGGCTACGACGGGATT
# B9: GACGGAC (DNA:RNA)
# RNA: GGGAGACCGGAAUUCAGAUUGUCCGACGGACUUAAAUCCCGUCGUAGCCACCA
# DNA 1: CAATCTGAATTCCGGTCTCCC
# DNA 2: TGGTGGCTACGACGGGATT
# B10: AUACCUU (DNA:RNA)
# RNA: B1 RNA with U25A, G26U, G27A, U29C, G30U, A31U
# DNA 1: CAATCTGAATTCCGGTCTCCC
# DNA 2: TGGTGGCTACGACGGGATT
# B11: UCUCCAC (DNA:RNA)
# RNA: B9 RNA with G25U, A26C, C27U, G28C, G29C
# DNA 1: CAATCTGAATTCCGGTCTCCC
# DNA 2: TGGTGGCTACGACGGGATT
# B12: GAGAAGC (DNA:RNA)
# RNA: B9 RNA with C27G, G28A, G29A, A30G
# DNA 1: CAATCTGAATTCCGGTCTCCC
# DNA 2: TGGTGGCTACGACGGGATT
# B13: UAGAUGG (DNA:RNA)
# RNA: B1 RNA with G26A, C28A, A31G
# DNA 1: CAATCTGAATTCCGGTCTCCC
# DNA 2: TGGTGGCTACGACGGGATT
# B14: GCUGUAA (DNA:RNA)
# RNA: B9 RNA with A26C, C27U, G29U, C31A
# DNA 1: CAATCTGAATTCCGGTCTCCC
# DNA 2: TGGTGGCTACGACGGGATT
# B15: GACUAUA (DNA:RNA)
# RNA: B9 RNA with G28U, G29A, A30U, C31A
# DNA 1: CAATCTGAATTCCGGTCTCCC
# DNA 2: TGGTGGCTACGACGGGATT
# B16: CAGCUAG (DNA:RNA)
# RNA: B1 RNA with U25C, G26A, G30A, A31G
# DNA 1: CAATCTGAATTCCGGTCTCCC
# DNA 2: TGGTGGCTACGACGGGATT
# B17: UGAUUGA (DNA:RNA)
# RNA: B1 RNA with G27A, C28U
# DNA 1: CAATCTGAATTCCGGTCTCCC
# DNA 2: TGGTGGCTACGACGGGATT
# B18: CUAACCA (DNA:RNA)
# RNA: B1 RNA with U25C, G26U, G27A, C28A, U29C, G30C
# DNA 1: CAATCTGAATTCCGGTCTCCC
# DNA 2: TGGTGGCTACGACGGGATT
# B19: GUCCGUG (DNA:RNA)
# RNA: B9 RNA with A26U, G28C, A30U, C31G
# DNA 1: CAATCTGAATTCCGGTCTCCC
# DNA 2: TGGTGGCTACGACGGGATT
# B20: UCGCGAG (DNA:RNA)
# RNA: B1 RNA with G26C, U29G, G30A, A31G
# DNA 1: CAATCTGAATTCCGGTCTCCC
# DNA 2: TGGTGGCTACGACGGGATT
# B21: UCUAGAC (DNA:RNA)
# RNA: B9 RNA with G25U, A26C, C27U, G28A
# DNA 1: CAATCTGAATTCCGGTCTCCC
# DNA 2: TGGTGGCTACGACGGGATT
# B22: AUAGGCA (DNA:RNA)
# RNA: B9 RNA with G25A, A26U, C27A, A30C, C31A
# DNA 1: CAATCTGAATTCCGGTCTCCC
# DNA 2: TGGTGGCTACGACGGGATT
# B23: CUCAAGG (DNA:RNA)
# RNA: B9 RNA with G25C, A26U, G28A, G29A, A30G, C31G
# DNA 1: CAATCTGAATTCCGGTCTCCC
# DNA 2: TGGTGGCTACGACGGGATT
# B24: CGGAGAC (DNA:RNA)
# RNA: B9 RNA with G25C, A26G, C27G, G28A
# DNA 1: CAATCTGAATTCCGGTCTCCC
# DNA 2: TGGTGGCTACGACGGGATT
# B25: CCUGCAC (DNA:RNA)
# RNA: B9 RNA with G25C, A26C, C27U, G29C
# DNA 1: CAATCTGAATTCCGGTCTCCC
# DNA 2: TGGTGGCTACGACGGGATT
# B26: UGCUACC (DNA:RNA)
# RNA: B9 RNA with G25U, A26G, G28U, G29A, A30C
# DNA 1: CAATCTGAATTCCGGTCTCCC
# DNA 2: TGGTGGCTACGACGGGATT
# B27: UAUCAGG (DNA:RNA)
# RNA: B1 RNA with G26A, G27U, U29A, A31G
# DNA 1: CAATCTGAATTCCGGTCTCCC
# DNA 2: TGGTGGCTACGACGGGATT
# B28: AUUCCUA (DNA:RNA)
# RNA: B1 RNA with U25A, G26U, G27U, U29C, G30U
# DNA 1: CAATCTGAATTCCGGTCTCCC
# DNA 2: TGGTGGCTACGACGGGATT
# B29: GGUCCGU (DNA:RNA)
# RNA: B1 RNA with U25G, G27U, U29C, A31U
# DNA 1: CAATCTGAATTCCGGTCTCCC
# DNA 2: TGGTGGCTACGACGGGATT
# B30: UAAUAGA (DNA:RNA)
# RNA: B1 RNA with G26A, G27A, C28U, U29A
# DNA 1: CAATCTGAATTCCGGTCTCCC
# DNA 2: TGGTGGCTACGACGGGATT
# B31: GGCAGUA (DNA:RNA)
# RNA: B9 RNA with A26G, G28A, A30U, C31A
# DNA 1: CAATCTGAATTCCGGTCTCCC
# DNA 2: TGGTGGCTACGACGGGATT
# Target: T1, RBFOX1 RRM
# Assay: EMSA; HiTS-Eq, 1 nM pool, 10 min; buffer printed only for the single-RNA assays: 10 mM Tris pH 7.5, 150 mM NaCl, 3.4 mM EDTA, 0.001% NP-40, 30 C
# Conditions: tags: His6 N-terminal (pET28a); label: 5' 32P
# Outline: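 Purified RbFox RRM, wild type or mutant, was incubated for 10 min in 50 µL with 1 nM of a 5′-radiolabelled RNA pool carrying 7 randomized nucleotides, whose flanks were annealed to DNA oligonucleotides, over a series of increasing protein concentrations. Unbound RNA was resolved on 8% native PAGE, cut out, reverse-transcribed, barcoded by PCR and sequenced on an Illumina HiSeq 2500. Relative association constants were derived from changes in read counts for each RNA species versus the control reaction and normalised to the cognate motif.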
row,Binder,binding signal
1,B1,0.036 KA relative to UGCAUGU
2,B2,0.014 KA relative to UGCAUGU
3,B3,0.00079 KA relative to UGCAUGU
4,B4,0.0239 KA relative to UGCAUGU
5,B5,0.0103 KA relative to UGCAUGU
6,B6,0.0132 KA relative to UGCAUGU
7,B7,0.0103 KA relative to UGCAUGU
8,B8,0.0104 KA relative to UGCAUGU
9,B9,0.0104 KA relative to UGCAUGU
10,B10,0.00186 KA relative to UGCAUGU
11,B11,0.00432 KA relative to UGCAUGU
12,B12,0.0124 KA relative to UGCAUGU
13,B13,0.0119 KA relative to UGCAUGU
14,B14,0.0158 KA relative to UGCAUGU
15,B15,0.00405 KA relative to UGCAUGU
16,B16,0.0155 KA relative to UGCAUGU

row,Binder,binding signal
1,B17,0.028 KA relative to UGCAUGU
2,B18,0.00108 KA relative to UGCAUGU
3,B19,0.0157 KA relative to UGCAUGU
4,B20,0.0131 KA relative to UGCAUGU
5,B21,0.00915 KA relative to UGCAUGU
6,B22,0.00818 KA relative to UGCAUGU
7,B23,0.00694 KA relative to UGCAUGU
8,B24,0.0171 KA relative to UGCAUGU
9,B25,0.0156 KA relative to UGCAUGU
10,B26,0.0147 KA relative to UGCAUGU
11,B27,0.00689 KA relative to UGCAUGU
12,B28,0.000532 KA relative to UGCAUGU
13,B29,0.0125 KA relative to UGCAUGU
14,B30,0.0143 KA relative to UGCAUGU
15,B31,0.01 KA relative to UGCAUGU
